In all, about 370,000 compounds went through this assay and about 150 (0.041%) were called active. The shares of active, inactive and inconclusive entries below differ from those in the screen. Calls come from the whole dose curve; as a rule, active = well fitted inhibition curve with a large enough effect; inconclusive = small, poorly fitted or top-dose-only effect; inactive = flat fitted curve, though single readings scatter. No potency is given beside an inconclusive call; the fits are too rough.
biological target: Beta-lactamase (Escherichia coli (strain K12)) (UniProt P00811); experiment: qHTS Inhibitors of AmpC Beta-Lactamase (assay with detergent); details: AmpC hydrolysis of nitrocefin, absorbance 480 nm, 0.01% Triton; series mostly up to 114 µM; note: nearly all actives have a fitted effect of over 25% in size
Outline: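 20 mM phosphate pH 7.0 + 0.01% (detergent screen) or 0.0001% Triton X-100; 5.3 nM AmpC reagent; cpd preinc 15 min RT; nitrocefin (800 uM stock) to start; A480 q20 s × 4 min; Activity was normalised to no-enzyme and no-compound control wells.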
Potency is the fitted concentration of half-maximal effect; tags give direction and shape of the fitted curve.

Chain of UniProt P00811 (P00811 whole entry, looked up): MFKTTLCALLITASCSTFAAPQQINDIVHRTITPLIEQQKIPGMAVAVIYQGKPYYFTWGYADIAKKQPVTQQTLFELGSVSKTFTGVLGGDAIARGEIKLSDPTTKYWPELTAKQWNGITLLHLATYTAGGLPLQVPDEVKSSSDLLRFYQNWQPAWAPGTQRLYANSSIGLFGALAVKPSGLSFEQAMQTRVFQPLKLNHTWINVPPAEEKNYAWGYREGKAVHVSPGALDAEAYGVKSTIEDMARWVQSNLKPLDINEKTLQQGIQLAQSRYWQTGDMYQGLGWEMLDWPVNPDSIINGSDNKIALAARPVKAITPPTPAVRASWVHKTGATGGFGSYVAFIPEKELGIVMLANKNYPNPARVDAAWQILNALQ

Row | SMILES | Potency
1 | COc1cc(C(=O)Nc2ccc(NC(=O)C3CC3)nc2)cc(OC)c1OC | inconclusive [inhibitor, full curve, poor fit]
2 | COc1ccc(C)cc1NS(=O)(=O)c1ccc2c(c1)CCCN2C(C)=O | inactive
3 | Cc1nc2ccccc2c2oc(C(=O)N3CCN(C(=O)c4ccco4)CC3)cc12 | inconclusive [inhibitor, full curve, poor fit]
4 | Cc1cc2ccccc2n1CCNC(=O)C1CCCCC1 | inconclusive [inhibitor, full curve, poor fit]
5 | CCc1cc2c(=O)[nH]c(Cc3ccc(Cl)cc3)nc2s1 | inconclusive [inhibitor, single point]
6 | O=C(Cn1nc(-c2ccc(F)cc2)ccc1=O)Nc1ccc(C(=O)NC2CC2)cc1 | inconclusive [inhibitor, single point]
7 | CCOc1cc(S(=O)(=O)NCc2cccs2)ccc1Cl | inconclusive [inhibitor, full curve, poor fit]
8 | COc1ccc(CCNC(=O)CSc2nnc3ccc(-c4ccccn4)nn23)cc1OC | inconclusive [inhibitor, full curve, poor fit]
9 | CC(C)(C)NC(=O)Cn1cc(S(=O)(=O)Cc2ccccc2Cl)c2ccccc21 | inactive
10 | c1ccc(NC2=NCCN2CCCC2CCCC2)cc1 | inconclusive [inhibitor, single point]
11 | O=C(NCc1ccccc1)c1ccc(S(=O)(=O)C(F)F)cc1 | inactive
12 | S=C1NCCOCCOCCOCCNC(=S)NCCOCCOCCOCCN1 | inconclusive [inhibitor, partial curve]
13 | O=C(O)CCc1ccc(-c2ccc(F)cc2)n1Cc1ccco1 | inconclusive [inhibitor, full curve, poor fit]
14 | COc1cccc(/C=N/Nc2nn3cnnc3c3ccccc23)c1 | inactive
15 | C=C(C)COc1ccc(-c2[nH]ncc2-c2ccc(OC)c(OC)c2)c(O)c1 | inactive
16 | O=C(NCc1ccc(Cl)cc1)c1cc2cccc3c2n1CCS3 | inactive
17 | Cc1cc2ccccc2n1CCNC(=O)c1cccs1 | inconclusive [inhibitor, full curve, poor fit]
18 | CCCc1cc(=O)[nH]c(SCC(=O)N2CCN(S(=O)(=O)c3ccc4ccccc4c3)CC2)n1 | inconclusive [inhibitor, full curve, poor fit]
19 | CCOc1ccccc1N(CC(=O)Nc1ccccc1F)S(=O)(=O)c1ccccc1 | inactive
20 | Cc1cccc(-c2noc(CCCC(=O)N3CCOCC3)n2)c1 | inactive

Source: PubChem BioAssay AID485294 (National Center for Advancing Translational Sciences (NCATS), 2010)
